# Results reported in PubChem BioAssay AID651820 (National Center for Advancing Translational Sciences (NCATS), 2012).
# In all, about 340,000 compounds went through this assay and about 12,000 (3.5%) were called active. The shares of active, inactive and inconclusive entries below differ from those in the screen. Calls come from the whole dose curve; as a rule, active = well fitted inhibition curve with a large enough effect; inconclusive = small, poorly fitted or top-dose-only effect, or another doubt; inactive = no such curve, though single readings can be large or run the other way. No potency is given beside an inconclusive call; the fits are too rough.
# Assay: qHTS Assay for Inhibitors of Hepatitis C Virus (HCV)
# Conditions: Huh7.5.1 HCVcc-Cre (HCVcc is cell-culture hepatitis C virus) infection, luciferase reporter, 44 h; activity change, negative = inhibition: at 41.8 µM (top of the series) unless noted
# Outline: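 Whole-lifecycle infectious HCVcc-Cre system; cells 1,000/well, compound then virus (~0.5 moi) added 4 h after plating, 44 h culture. Luciferase read 15 sec following 15 min substrate incubation, room temp.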
# % is set by controls: 0 for no effect and ±100 for the full control effect; potency is the fitted concentration of half-maximal effect; tags give direction and shape of the fitted curve.
SMILES,"activity change, negative = inhibition",Potency
S=C(NCCc1ccccc1)NCCc1ccccc1,inactive: -4.81%,–
O=C(CN(Cc1ccccc1)C(=O)CCl)c1cccc(Br)c1,–,"inconclusive [inhibitor, single point]"
O=C(CSc1nc(-c2ccccc2)c(-c2ccccc2)[nH]1)Nc1ccc2c(c1)OCO2,–,"inconclusive [inhibitor, single point]"
CCOC(=O)C1(CCOc2ccccc2)CCN(Cc2cc(OC)c3c(c2)OCO3)CC1,–,active: 11.2 µM
O=C(CCOc1ccccc1)Nc1cccc(S(=O)(=O)Nc2ccccc2Cl)c1,–,"inconclusive [inhibitor, partial curve]"
Cc1cccc(C(=O)NC(=S)Nc2ccc(S(=O)(=O)N(C)c3ccccc3)cc2)c1,–,"inconclusive [inhibitor, single point]"
CC(C)CCN(C(=O)Cc1ccc(Cl)c(Cl)c1)c1c(N)n(Cc2ccccc2)c(=O)[nH]c1=O,–,active: 10 µM
COc1cccc(NC(=O)CN(C)C(=O)[C@@H]2CCCN2C(=O)c2cccs2)c1,–,"inconclusive [inhibitor, partial curve]"
CCCCC(=O)Nc1ccc(NC(=S)NC(=O)c2cccs2)cc1OC,–,"inconclusive [inhibitor, single point]"
CCc1ccc(NC2=CC(=O)C(=O)c3ccccc32)cc1,–,"inconclusive [inhibitor, single point]"
COc1cc(OC)cc(-n2nnnc2SCC(=O)NCc2ccc3c(c2)OCO3)c1,–,"inconclusive [inhibitor, single point]"
Cn1nc(C(=O)OCC(=O)Nc2ccccc2[N+](=O)[O-])c2ccccc2c1=O,inactive: -0.972%,–
CCOC(=O)Nc1cc(Br)c2c(c1)OCCO2,inactive: -10.7%,–
O=C(Nc1nc2c(s1)CCCC2)c1ccc2ncsc2c1,–,"inconclusive [inhibitor, full curve]"
O=C(CSc1nc2ccccc2c(=O)n1CCCN1CCOCC1)c1c[nH]c2ccccc12,–,active: 14.1 µM
Cc1nn2c3c(cnc2c1-c1ccccc1)C(=O)CC(c1ccco1)C3 (stereo not given),inactive: -13.8%,–
Cc1oc2c(c1C(=O)N1CCOCC1)C(=O)c1ccccc1C2=O,–,active: 5.62 µM
O=C(CN1CCN(c2ccccc2)CC1)c1c[nH]c2ccccc12,–,"inconclusive [inhibitor, single point]"
CCNc1nc(NCC)n2c(SCC(=O)Nc3ccc(CC)cc3)nnc2n1,–,"inconclusive [inhibitor, single point]"
C/C(=N/OC(=O)c1ccc(Br)cc1)c1ccc(C)cc1,–,"inconclusive [inhibitor, single point]"
